# Measured values reported in the RNAGym collection of RNA variant scans (doi:10.7554/elife.90254).
# Read counts are not given, so values of variants with three or more changes are uncertain.
# B1: LINE1-mini (parent)
# chain: GGCAGAGCUCAACACAGCGUGGCAAAGUGGCUGUGGCUAGACUGCC
# Variants of: B1
# Experiment: self-cleavage, relative activity (ratio to wild type); higher = more cleavage; in vitro, sequencing; the parent is a self-cleaving ribozyme
row,Variant,self-cleavage
1,C10A C13U G19U G44U,0
2,C15A A25C C45A,0.02
3,C10U G17A C31A G36C,0.02
4,A4U U28C U38A C45A,0.02
5,C10A U20C G35A G36U,0.01
6,G1U G5C A14U C18U C23U A26U G27A U32C C42G,0.02
7,A16G U20A G35U,0.05
8,G5C A6U U9A A14C U20G G27A U28C C45A,0.05
9,U9G G35U G36U C42A C45A,0.09
10,C10A A14G G22C G40U,0.01
11,C3A C15U G29A,2.26
12,G2C C8A A39G C42U,1.83
13,G1A C13G A14U G17C A41G C45U C46A,0
14,C8U U9C C10G G27C,0.01
15,G5A C13A G30A C31G C46A,0.03
16,G1U A6U C10U A24C G44U,0.02
17,C15U A25C G29C,0.85
18,G1C A12U G19A C23G U28C C45A,0.08
19,A14C C15G A41C,0.06
20,U9C C13U U20A G36A,0
21,C8G A16C A39C,0
22,A4U G19C G27C G35U,0.11
23,G2U G7A U20A C46U,0.02
24,G17U U28G G33A G35C,0.03

row,Variant,self-cleavage
1,G29A U32G G35C,0.2
2,C3A C10A C15A G17A G30U,0.08
3,C10A G21U G29C A41C,0
4,G27A G35U C45A,0.02
5,G1U G19U G33U,0.02
6,U9A G29U U32C C42A,0.22
7,A4U A11C G19A G22U,0.02
8,G7C C23A G30U C46U,0.08
9,A16G C18U A26C G29U C42A,0.04
10,G1A G5A C15A C23A,0.14
11,A6U G7A G21A G22A C23U C31U G33A,0.11
12,A6U G7C C8U U38C,0.54
13,C3U U34G G40C,0.03
14,A4U C15G C18U A24G G30U,0
15,G2C C8U U9A A16C,0.06
16,C10U G30U C45G,0.08
17,G5U A6C C8U,0.37
18,G7A G29A A41G,0.19
19,A11U C13U A25G G44A,0.01
20,C13U G21U A24C G36C C46A,0.05
21,C18U U20A C23G G36U G44C,0.02
22,C10U C13A U28C G44U,0.02
23,A25C U38G G40A,0
24,G5A G19A A24G,0.31

row,Variant,self-cleavage
1,G2A C13A C15G U20A,0.04
2,C42A U43G C45U,0.06
3,G5U A11U G21U,0.03
4,C3A C15A U28G U38A,0.12
5,G5A C18U G36A C46G,0.05
6,A16G U28A U34G,0.16
7,G1A G7U C10G,0.04
8,A11U C18A U20C C31A,0.03
9,C13U C23U G30U C45A,0.02
10,G2C G19C A26G,0
11,A26G C37A C45A,0.06
12,G1C C10A G29U G33A,0.01
13,A12U C15A G17C,0.1
14,G5U G7C G27C C37G C46A,0.02
15,A12U A14C G19U U28G G44C,0
16,C10A C13U C31A U38A,0.06
17,A14U U20G C42U C46U,0.02
18,G2C U20C U28A C37U,0.04
19,C18U G44A C46A,0.06
20,C3G U38C G40C,0.03
21,G7U G17C U20G U28C U43C,0.05
22,G1A G5C A6U G7A C18A G33U C42U,2.07
23,C15U C18G G40U,0.02
24,G1C C3G C18U A25U,0.08

row,Variant,self-cleavage
1,A4G A14C A25U C31G,0.06
2,C10A C23G G27U G40A C42A,0.01
3,C13U C15U G19U G21C C37A,0.04
4,A12C A24C G35U,0.05
5,A6U C13A U32C,0.19
6,C8U G17A G30A,0.44
7,A4C C15U A24G G30A,0.11
8,G7A C18A A26G U43C,0.01
9,C3U G5U C10A C23A,0.02
10,G19C G22U G29A,0.7
11,G5U U28A U32C,0.04
12,G2C G29U U38C,0.18
13,G36C C37U C42A,0.09
14,A6U A16C C45A,0.06
15,U34G G35A C45G,0.05
16,G2A C10A U20C C42U,0.02
17,C10A C13U C15G G22U A26C,0.02
18,C8U G19A U34A,0.03
19,C13U G21U G22U G27C U28A G30C C46A,0.05
20,C8G U9C C46A,0
21,G5A A26G G33C,0.07
22,C3A A12G C23U U32G,0.02
23,C10U A24U U34A,0.02
24,G17C U20G A24U A41C,0.03

row,Variant,self-cleavage
1,C10U G27U C42G,0.07
2,C3A G7A A12U A24U G29C G33A,0.16
3,G2C C10A U32C,0
4,U9C G19A G21U,0.02
5,A12C C15A G17U A26G G33U G35A,0.02
6,G5C U9A A12C C18A,0.03
7,G7U A12G U20C C31A,0.01
8,U9C C23G A25C U34A G35A,0.01
9,A6U C18A G19C U20C C45U,1.28
10,G5C U9A G35U,0.05
11,C15A G30U A39C,0.07
12,G33A C42A G44U,0.03
13,G2C G7A C15G G29U U43C,0.21
14,A6C C18A G22U U32A G40C,0
15,G1U G19U G21U,0.2
16,U9C C13U C15G G29U C42G G44C,0.01
17,C8A A24U A25U G27C C46A,0.13
18,G1C G7C G27U C37A,0
19,C3G C18U U38C,0
20,A11U C18A G35A G36U,0.01
21,C13G C18A G22C G44A C45G C46G,0.03
22,G1A C8G C10G C18G C31G U38G G44U,0
23,A4C G19C C23G G44U,0.07
24,C8A G17A G33A,0.21

row,Variant,self-cleavage
1,C3U C13U G19C C45A,0.02
2,C15U G22C C23A,2.09
3,U9A G17A U43A,0.03
4,G22U A24C G27U G29U U38C,0.34
5,G2U A4C G44C,0.04
6,C23U U32C U38C,0.8
7,A6U C15A C31U,0.12
8,A14U U20A U34A,1.19
9,C10A C13A G30U G35U,0.06
10,A4G U28G G36C,0.05
11,G7C C13U A26C A39G G44U C46U,1.33
12,A6C G22U G40C,0.1
13,G1A C18U C42A,0.24
14,U20A U34G G44C,0.01
15,G17U U20C G40U,0.08
16,C10U U28G C31U C37A C42G,0.01
17,C10A C23U A24U C37U,0.01
18,U9C A11G G27A C37G C42U C46G,0.01
19,G17C C18G U38G,0.06
20,A6G G7C U34A C46A,0
21,G7C G19U U32A A39C,0.09
22,A12G G17C U20C G29U G44U C46A,0.38
23,G1U A4C A12U A41C,0.04
24,C3G A11G G40C C46G,0.01

row,Variant,self-cleavage
1,C8A A11C G30A,0.03
2,G2U C18A C23G C31G U32C C37A,0.02
3,C3A G17U G19U A26C,0.15
4,A4C A25U G29A A41U,0.25
5,U28C C31G G36U,0.05
6,A6U G21U G36C,0.17
7,A4C C8G U9A,0.07
8,G2A C3A A11C U32C A41C G44C,0.02
9,G1C A16G G21A C23A,0.08
10,G1A C13A A16C U20G,0.04
11,C8G C31U U38C,0.03
12,U9C A14C U20C,0.02
13,A16G G27A U43A,0
14,A6U A11G G21A C31G G36U C46G,0.02
15,A11G G36C A41C,0.03
16,G2U G27U C37U A41U C42A,0.06
17,G17C G21U U43A,0.05
18,G5A C8A C31G C37A,0.03
19,C3G G29C U34A C42A,0.37
20,U32C G33C A39C,0.07
21,A4C G5U C8A C15A U38A,0.2
22,C10A U38G C45G,0.03
23,U20G G29A C46A,0.04
